Drawing on US9890133B2 (priority 2011, dated 2018), this text covers EC50 for 37 compounds.

In brackets after ≈: the same amount, converted by molar mass. Bounds are passed on as bounds.

In one test the test system is Coxsackie B1. The test can be described thus: organism not typed. The settings on record: read-out: Coxsackie B1 EC50.
A further test concerns Coxsackie B3. Nature of the test: microbe, parasite or virus in culture. The note with it: Enterovirus B, B3, read-out: Coxsackie B3 EC50.
In another test the test system is Rhinovirus. Nature of the test: microbe, parasite or virus in culture. In kind it is cell-based. The settings on record: Enterovirus, HRV14, read-out: Rhino HRV14 EC50.

As to `CC(=O)O[C@@]12Oc3cc(C(C)C)ccc3[C@]1(OC(C)=O)C(=O)c1c(NS(C)(=O)=O)cccc12` (stereo in doubt) [Example 54, acetic acid 4b-acetoxy-7-isopropyl-1-methanesulfonylamino-10-oxo-4b,10-dihydro-5-oxa-indeno[2,1-a]inden-9b-yl ester], the results for the EC50 with Coxsackie B1 and in the test on Coxsackie B3 were 0.014 µg/mL (≈ 0.0296 µM) and 0.0147 µg/mL (≈ 0.031 µM), respectively.

Turning to `Cc1ccc2c(c1)OC1(O)c3ccccc3C(=O)C21O` (stereo not shown) [Example 1, 4b,9b-Dihydroxy-7-methyl-4bH-benzo[d]indeno[1,2-b]furan-10(9bH)-one], the EC50 in the test with Coxsackie B1 amounted to 0.026 µg/mL (≈ 0.0969 µM).

For `CC(=O)OC12Oc3cc(C)ccc3C1(OC(C)=O)C(=O)c1ccccc12` (stereo not shown) [Example 2, 7-Methyl-10-oxo-9b,10-dihydro-4bH-benzo[d]indeno[1,2-b]furane-4b,9b-diyl diacetate], the EC50 in the test with Coxsackie B3 was 0.02 µg/mL.

For the compound `Cc1cc2c(cc1C)C1(O)C(=O)c3ccccc3C1(O)O2` (stereo not shown) [Example 4, 4b,9b-dihydroxy-7,8-dimethyl-4bH-benzo[d]indeno[1,2-b]furan-10(9bH)-one], the EC50 in the test with Coxsackie B3 was 0.019 µg/mL (≈ 0.0673 µM).

With `CCc1ccc2c(c1)OC1(O)c3ccccc3C(=O)C21O` (stereo not shown) [Example 9, 7-Ethyl-4b,9b-dihydroxy-4bH-benzo[d]indeno[1,2-b]furan-10(9bH)-one], the EC50 in the test on Coxsackie B1 was less than 0.01 µg/mL; in the test with Coxsackie B3, 0.027 µg/mL (≈ 0.0956 µM).

For `CC(=O)OC12Oc3cc(C(C)C)ccc3C1(OC(C)=O)C(=O)c1ccccc12` (stereo not shown) [Example 11, 7-Isopropyl-10-oxo-9b,10-dihydro-4bH-benzo[d]indeno[1,2-b]furane-4b,9b-diyl diacetate], the EC50 in the test with Coxsackie B1 and with Coxsackie B3 was less than 0.01 µg/mL in each case.

As for `CC(C)(C)c1cc(C(C)(C)C)c2c(c1)C1(O)C(=O)c3ccccc3C1(O)O2` (stereo not shown) [Example 24, 6,8-di-tert-Butyl-4b,9b-dihydroxy-4bH-benzo[d]indeno[1,2-b]furan-10(9bH)-one], the EC50 in the test with Coxsackie B1 was 0.013 µg/mL (≈ 0.0355 µM).

Consider `CC(C)OC(=O)Nc1cccc2c1C(=O)C1(O)c3ccc(C(C)C)cc3OC21O` (stereo not shown) [Example 29, Isopropyl 4b,9b-dihydroxy-7-isopropyl-10-oxo-9b,10-dihydro-4bH-benzo[d]indeno[1,2-b]furan-1-ylcarbamate], for which, in the test on Coxsackie B1, the EC50 worked out at 0.355 µg/mL (≈ 0.893 µM).

`C=CC(=O)OC12Oc3cc(C(C)C)ccc3C1(O)C(=O)c1ccccc12` (stereo not shown) [Example 35, 9b-Hydroxy-7-isopropyl-10-oxo-9b,10-dihydro-4bH-benzo[d]indeno[1,2-b]furan-4b-yl acrylate]: the EC50 in the test on Coxsackie B1 was less than 0.01 µg/mL.

Regarding `CC(C)c1ccc2c(c1)OC1(OC(=O)c3ccco3)c3ccccc3C(=O)C21O` (stereo not shown) [Example 36, 9b-Hydroxy-7-isopropyl-10-oxo-9b,10-dihydro-4bH-benzo[d]indeno[1,2-b]furan-4b-yl furane-2-carboxylatefurane-2-carboxylic acid], the EC50 with Coxsackie B1 is less than 0.01 µg/mL.

In the case of `CCOC(=O)OC12Oc3cc(C(C)C)ccc3C1(OC(=O)OCC)C(=O)c1ccccc12` (stereo not shown) [Example 37, Diethyl 7-isopropyl-10-oxo-9b,10-dihydro-4bH-benzo[d]indeno[1,2-b]furane-4b,9b-diyl dicarbonate], the EC50 in the test on Coxsackie B1 was less than 0.01 µg/mL.

In the case of `CCOC(=O)OC12Oc3cc(C(C)C)ccc3C1(O)C(=O)c1ccccc12` (stereo not shown) [Example 38, Ethyl 9b-hydroxy-7-isopropyl-10-oxo-9b,10-dihydro-4bH-benzo[d]indeno[1,2-b]furan-4b-yl carbonate], the EC50 with Coxsackie B1 was less than 0.01 µg/mL.

In the case of `CCN(CC)C(=O)OC12Oc3cc(C(C)C)ccc3C1(O)C(=O)c1ccccc12` (stereo not shown) [Example 40, 9b-Hydroxy-7-isopropyl-10-oxo-9b,10-dihydro-4bH-benzo[d]indeno[1,2-b]furan-4b-yl diethylcarbamate], the EC50 in the test on Coxsackie B1 is less than 0.01 µg/mL.

As for `CCN(CC)C(=O)OC12C(=O)c3ccccc3C1(O)Oc1cc(C(C)C)ccc12` (stereo not shown) [Example 41, 4b-Hydroxy-7-isopropyl-10-oxo-9b,10-dihydro-4bH-benzo[d]indeno[1,2-b]furan-9b-yl diethylcarbamate], the EC50 in the test with Coxsackie B1 is less than 0.01 µg/mL.

As for `CC(C)c1ccc2c(c1)O[C@@]1(O)c3cccc(N)c3C(=O)[C@@]21O` [Example 46, 1-Amino-4b,9b-dihydroxy-7-isopropyl-4bH-benzo[d]indeno[1,2-b]furan-10(9bH)-one], the EC50 in the test on Coxsackie B1 and in the test on Rhinovirus was less than 0.01 µg/mL throughout.

In the case of `COC(=O)Nc1cccc2c1C(=O)C1(O)c3ccc(C(C)C)cc3OC21O` (stereo not shown) [Example 49, Methyl 4b,9b-dihydroxy-7-isopropyl-10-oxo-9b,10-dihydro-4bH-benzo[d]indeno[1,2-b]furan-1-ylcarbamate], in the test with Coxsackie B1, the EC50 came out at 0.373 µg/mL (≈ 1.01 µM).

Turning to `CC(=O)OC12Oc3cc(C(C)C)ccc3C1(OC(C)=O)C(=O)c1c([N+](=O)[O-])cccc12` (stereo not shown) [Example 53], in the test with Coxsackie B1, the EC50 stood at 0.04 µg/mL (≈ 0.094 µM).

`CC(C)NC(=O)Nc1cccc2c1C(=O)C1(O)c3ccc(C(C)C)cc3OC21O` (stereo not shown) [Example 55]: in the test with Coxsackie B1, the EC50 came to 0.084 µg/mL (≈ 0.212 µM).

`CC(=O)Nc1cccc2c1C(=O)C1(N)c3ccc(C(C)C)cc3OC21O` (stereo not shown) [Example 56]: the concentration for a half-maximal effect (EC50) in the test with Coxsackie B1 came out at 0.0784 µg/mL (≈ 0.222 µM).

With `CC(=O)Nc1cccc2c1C(=O)C1(NC(C)=O)c3ccc(C(C)C)cc3OC21O` (stereo not shown) [Example 57, N,N′-(4b-Hydroxy-7-isopropyl-10-oxo-9b,10-dihydro-4bH-benzo[d]indeno[1,2-b]furane-1,9b-diyl)diacetamide], the EC50 in the test with Coxsackie B1 was 0.35 µg/mL (≈ 0.887 µM).

`CCCCCCNC12C(=O)c3ccccc3C1(O)Oc1cc(C(C)C)ccc12` (stereo not shown) [Example 67, 9b-Hexylamino-4b-hydroxy-7-isopropyl-4b,9b-dihydro-5-oxa-indeno[2,1-a]inden-10-one]: in the test on Coxsackie B1, the EC50 was found to be 0.596 µg/mL (≈ 1.57 µM).

Turning to `CC(C)c1ccc2c(c1)OC1(O)c3ccccc3C(=O)C21N=C=O` (stereo not shown) [Example 69, 4b-Hydroxy-9b-isocyanato-7-isopropyl-4b,9b-dihydro-5-oxa-indeno[2,1-a]-inden-10-one], the EC50 with Coxsackie B1 came to 0.43 µg/mL (≈ 1.34 µM).

For the compound `CCCCC(=O)NC12C(=O)c3c(N)cccc3C1(O)Oc1cc(C(C)C)ccc12` (stereo not shown) [Example 78, Pentanoic acid (1-amino-4b-hydroxy-7-isopropyl-10-oxo-4b,10-dihydro-5-oxa-indeno[2,1-a]inden-9b-yl)-amide], the EC50 with Coxsackie B1 is 0.025 µg/mL (≈ 0.0634 µM); with Rhinovirus, less than 0.01 µg/mL.

Turning to `CC(C)c1ccc2c(c1)O[C@@]1(O)c3cccc([N+](=O)[O-])c3C(=O)[C@@]21O` [Example 80, 4b,9b-Dihydroxy-7-isopropyl-1-nitro-4bH-benzo[d]indeno[1,2-b]furan-10(9bH)-one], the EC50 in the test on Coxsackie B1 worked out at 0.0139 µg/mL (≈ 0.0407 µM).

As to `CO/N=C1/c2ccccc2C2(O)Oc3cc(C(C)C)ccc3C12O` (stereo not shown) [Example 88, 4b,9b-Dihydroxy-7-isopropyl-4bH-indeno[1,2-b]benzofuran-10(9bH)-one O-methyl oxime], the EC50 with Coxsackie B1 was 0.017 µg/mL (≈ 0.0522 µM).

For the compound `CC(=O)N1c2cc(C)c(C)cc2C2(O)C(=O)c3ccccc3C12O` (stereo not shown) [Example 104, 5-Acetyl-4b,9b-dihydroxy-7,8-dimethyl-4b,5-dihydroindeno[1,2-b]indol-10(9bH)-one], in the test on Coxsackie B1, the EC50 is 0.015 µg/mL (≈ 0.0464 µM).

As for `CC(=O)NC12C(=O)c3ccccc3C1(OC(=O)C(C)(C)C)Oc1cc(C(C)C)ccc12` (stereo not shown) [Example 117, 9b-Acetamido-7-isopropyl-10-oxo-9b,10-dihydro-4bH-benzo[d]indeno[1,2-b]furan-4b-yl pivalate], in the test with Coxsackie B1, the half-maximal effective concentration (EC50) came to 0.012 µg/mL (≈ 0.0285 µM).

Turning to `CC(=O)NC12Oc3cc(C(C)C)ccc3C1(NC(C)=O)C(=O)c1ccccc12` (stereo not shown) [Example 119], in the test with Coxsackie B1, the EC50 was determined as 0.027 µg/mL (≈ 0.0713 µM).

With `CC(=O)NC12C(=O)c3ccccc3C1(OC(=O)Oc1ccccc1)Oc1cc(C(C)C)ccc12` (stereo not shown) [Example 121, Carbonic acid 9b-acetylamino-7-isopropyl-10-oxo-9b,10-dihydro-5-oxa-indeno[2,1-a]inden-4b-yl ester phenyl ester], in the test with Coxsackie B1, the EC50 worked out at 0.02 µg/mL (≈ 0.0437 µM).

As to `CC(C)c1ccc2c(c1)OC1(O)c3cccc(NCc4ccccc4)c3C(=O)C21O` (stereo not shown) [Example 132, 1-(Benzylamino)-4b,9b-dihydroxy-7-isopropyl-4bH-indeno[1,2-b]benzofuran-10(9bH)-one], the EC50 in the test on Coxsackie B1 turned out to be 0.03 µg/mL (≈ 0.0747 µM).

Take `CCNc1cccc2c1C(=O)C1(O)c3ccc(C(C)C)cc3OC21O` (stereo not shown) [Example 133, 1-(Ethylamino)-4b,9b-dihydroxy-7-isopropyl-4bH-indeno[1,2-b]benzofuran-10(9bH)-one]: the EC50 in the test on Coxsackie B1 was less than 0.01 µg/mL.

In the case of `CC(C)C(=O)N1c2cc(C(C)C)ccc2C2(O)C(=O)c3ccccc3C12O` (stereo not shown) [Example 145, 4b,9b-Dihydroxy-5-isobutyryl-7-isopropyl-5,9b-dihydro-4bH-indeno[1,2-b]indol-10-one], the EC50 in the test on Coxsackie B1 was found to be 0.026 µg/mL (≈ 0.0711 µM).

For the compound `CC(C)c1ccc2c(c1)OC1(O)c3cccc(N(C)C)c3C(=O)C21O` (stereo not shown) [Example 151, 1-(Dimethylamino)-4b,9b-dihydroxy-7-isopropyl-4bH-benzo[d]indeno[1,2-b]-furan-10(9bH)-one], the EC50 in the test on Coxsackie B1 came to 0.04 µg/mL (≈ 0.118 µM).

As for `CC(C)c1ccc2c(c1)OC1(O)c3cccc(N)c3C(=O)C21NS(C)(=O)=O` (stereo not shown) [Example 168, N-(1-Amino-4b-hydroxy-7-isopropyl-10-oxo-9b,10-dihydro-4bH-benzo[d]indeno[1,2-b]furan-9b-yl)methanesulfonamide], the EC50 in the test on Coxsackie B1 came out at 0.04 µg/mL (≈ 0.103 µM).

On to `CCNC(=O)NC12C(=O)c3c(N)cccc3C1(O)Oc1cc(C(C)C)ccc12` (stereo not shown) [Example 173], for which, in the test on Coxsackie B1, the EC50 stood at 0.036 µg/mL (≈ 0.0944 µM).

For `CC(C)c1ccc2c(c1)OC1(O)c3ccccc3C(=O)C21NC(=O)[C@@H](Cc1ccccc1)NC(=O)OC(C)(C)C` (stereo partly drawn) [Example 185, tert-Butyl(2R)-1-(4b-hydroxy-7-isopropyl-10-oxo-9b,10-dihydro-4bH-benzo[d]indeno[1,2-b]furan-9b-ylamino)-1-oxo-3-phenylpropan-2-ylcarbamate], in the test on Coxsackie B1, the EC50 was found to be 0.028 µg/mL (≈ 0.0516 µM).

`CC(C)c1ccc2c(c1)OC1(O)c3cccc(N)c3C(=O)C21NC(=O)c1cc2ccccn2c1` (stereo not shown) [Example 283, N-(1-Amino-4b-hydroxy-7-isopropyl-10-oxo-9b,10-dihydro-4bH-indeno[1,2-b]benzofuran-9b-yl) indolizine-2-carboxamide]: the EC50 in the test with Coxsackie B1 and in the test on Rhinovirus was 0.024 µg/mL (≈ 0.0529 µM) each time.

A word on the EC50: it is the midpoint of the concentration-response curve.
